{"source": "PubChem BioAssay (Tox21)", "key": {"[1]": {"molecular_target": "Estrogen receptor beta (Homo sapiens) (UniProt Q92731)", "sequence (Q92731 whole entry, looked up)": "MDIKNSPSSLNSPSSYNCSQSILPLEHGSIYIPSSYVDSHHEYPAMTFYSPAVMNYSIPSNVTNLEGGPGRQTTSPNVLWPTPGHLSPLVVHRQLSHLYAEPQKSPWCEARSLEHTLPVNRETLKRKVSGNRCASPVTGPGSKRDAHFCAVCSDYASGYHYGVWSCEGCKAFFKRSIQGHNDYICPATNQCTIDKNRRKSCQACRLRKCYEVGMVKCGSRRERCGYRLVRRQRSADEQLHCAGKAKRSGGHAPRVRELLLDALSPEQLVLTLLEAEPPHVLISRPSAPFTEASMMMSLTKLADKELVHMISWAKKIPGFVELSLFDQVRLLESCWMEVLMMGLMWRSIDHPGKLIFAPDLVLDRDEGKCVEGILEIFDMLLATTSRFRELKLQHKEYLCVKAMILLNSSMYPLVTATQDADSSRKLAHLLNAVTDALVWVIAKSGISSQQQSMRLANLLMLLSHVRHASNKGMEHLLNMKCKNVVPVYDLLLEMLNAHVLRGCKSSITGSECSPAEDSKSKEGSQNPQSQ", "test": "qHTS assay to identify small molecule antagonists of the estrogen receptor beta (ER-beta) signaling pathway (AID 1259378; active = well fitted inhibition curve with a large enough effect in the signal ratio in the repeat runs, not every such curve was filed as active; inconclusive = weak or mixed curves, or effect the other way; inactive = no such curve, though single readings can be large or run the other way; the % refers to the signal ratio; note: potency is the fitted concentration of half-maximal effect; for activity, negative = inhibition: % is set by controls: 0 for no effect and ±100 for the full control effect)", "conditions": "ER-beta-UAS-bla HEK293T, beta-lactamase FRET ratio, 16 h", "how_it_was_run": "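ER-beta-UAS-bla HEK293T (GripTite) cells in 2% charcoal-stripped FBS medium were preincubated 6 hr at 37C, dosed with compound, then stimulated with 1 nM E2 (final) for 16 hr; beta-lactamase reporter read by B/G FRET fluorescence after 2 hr substrate loading.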"}, "[2]": {"test": "qHTS assay to identify small molecule agonists of the androgen receptor (AR) signaling pathway in the presence of an antagonist - cell viability counter screen (AID 1259379); note: potency is the fitted concentration of half-maximal effect; nearly all actives have a fitted effect of over 25% in size", "conditions": "MDA-kb2 viability, CellTiter-Fluor, 16 h; series mostly up to 92.4 µM", "how_it_was_run": "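Each compound was tested at 15 concentrations on MDA-kb2 cells in the presence of 3.0uM nilutamide. Viability was measured by CellTiter-Fluor fluorescence after a 16 hr incubation at 37C in a CO2-free atmosphere.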"}, "[3]": {"test": "qHTS assay to identify small molecule agonists of the estrogen receptor alpha (ER-alpha) signaling pathway in the presence of an antagonist - cell viability counter screen (AID 1259386); note: potency is the fitted concentration of half-maximal effect; nearly all actives have a fitted effect of over 30% in size", "conditions": "VM7Luc4E2 viability, CellTiter-Fluor fluorescence, 22 h; series mostly up to 92.4 µM", "how_it_was_run": "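Using estrogen-depleted VM7Luc4E2 cells, the 15-concentration compound series was applied together with 10.0nM ICI-182,780 and incubated 22hr at 37C/5% CO2. Cell viability was then scored by CellTiter-Fluor.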"}, "[4]": {"molecular_target": "Estrogen receptor (Homo sapiens) (UniProt P03372)", "sequence (P03372 whole entry, looked up)": "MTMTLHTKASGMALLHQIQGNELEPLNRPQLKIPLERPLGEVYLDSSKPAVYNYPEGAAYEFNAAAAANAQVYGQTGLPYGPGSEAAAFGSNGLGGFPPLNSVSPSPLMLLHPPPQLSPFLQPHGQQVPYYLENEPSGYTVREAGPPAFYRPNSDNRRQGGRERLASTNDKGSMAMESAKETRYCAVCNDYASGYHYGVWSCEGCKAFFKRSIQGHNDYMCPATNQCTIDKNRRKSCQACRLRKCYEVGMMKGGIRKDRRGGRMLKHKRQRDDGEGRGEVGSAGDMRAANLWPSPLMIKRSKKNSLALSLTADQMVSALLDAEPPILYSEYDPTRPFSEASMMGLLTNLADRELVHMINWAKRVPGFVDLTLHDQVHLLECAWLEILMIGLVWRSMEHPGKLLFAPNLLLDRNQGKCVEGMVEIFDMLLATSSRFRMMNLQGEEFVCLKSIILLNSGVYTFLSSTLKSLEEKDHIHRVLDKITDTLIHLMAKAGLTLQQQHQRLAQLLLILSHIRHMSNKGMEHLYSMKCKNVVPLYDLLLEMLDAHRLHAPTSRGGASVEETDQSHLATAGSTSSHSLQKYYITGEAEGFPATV", "test": "qHTS assay to identify small molecule agonists of the estrogen receptor alpha (ER-alpha) signaling pathway in the presence of an antagonist (AID 1259383; calls by dose curve; note: nearly all actives have a fitted effect of over 15% in size; note: potency is the fitted concentration of half-maximal effect; for activation: top concentration of the series differs between compounds; % is set by controls: 0 for no effect and ±100 for the full control effect)", "conditions": "VM7Luc4E2 cells, ERE-luciferase, +ICI-182,780, 22 h; series mostly up to 42.5 µM", "how_it_was_run": "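Luminescent ERE-luciferase reporter, VM7Luc4E2 cells (endogenous ER-alpha); 10.0nM ICI-182,780 final; 15-point compound titration; 22hr at 37C; ONE-Glo, 30min RT.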"}, "[5]": {"test": "qHTS assay to identify small molecule antagonists of the estrogen receptor beta (ER-beta) signaling pathway - cell viability counter screen (AID 1259382); note: potency is the fitted concentration of half-maximal effect; nearly all actives have a fitted effect of over 55% in size", "conditions": "ER-beta-UAS-bla HEK293T viability, CellTiter-Glo luminescence, 16 h; series mostly up to 92.4 µM", "how_it_was_run": "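CellTiter-Glo ATP luminescence measured after the LiveBLAzer read in the same wells; ER-beta-UAS-bla HEK293T cells, 16 hr compound treatment with 1nM 17-beta-estradiol agonist at 37C, 5% CO2.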"}, "[6]": {"test": "qHTS assay to identify small molecule agonists or antagonists of the thyroid stimulating hormone receptor (TSHR) signaling pathway - wild type cell line counter screen (AID 1259384; calls by dose curve; note: potency is the fitted concentration of half-maximal effect)", "conditions": "HEK293 wild type, cAMP HTRF counter-screen; cAMP activity change: at 92.4 µM (top of the series), stronger effect = higher value unless noted", "how_it_was_run": "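Wild-type HEK293 cells were plated 18 h at 37 C/5% CO2, pin-dosed with compound plus Ro20-1724 medium, held 30 min at room temperature, then given cAMP-d2 and anti-cAMP-cryptate; fluorescence was read after 1 h. Fifteen concentrations, triplicate.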"}, "[7]": {"test": "qHTS assay to identify small molecule agonists of the estrogen receptor beta (ER-beta) signaling pathway - cell viability counter screen (AID 1259380); note: nearly all actives have a fitted effect of over 30% in size; note: potency is the fitted concentration of half-maximal effect", "conditions": "ER-beta-bla HEK293T viability, CellTiter-Glo luminescence, 16 h; series mostly up to 92.4 µM", "how_it_was_run": "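Compounds dissolved in DMSO were pin-transferred onto ER-beta-UAS-bla HEK293T cells that had settled 6 hr, and exposure ran 16 hr at 37C. Following the reporter read, CellTiter-Glo luminescence after 30 min at room temperature indicated cytotoxicity.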"}, "[8]": {"molecular_target": "Progesterone receptor (Homo sapiens) (UniProt P06401)", "sequence (P06401 whole entry, looked up)": "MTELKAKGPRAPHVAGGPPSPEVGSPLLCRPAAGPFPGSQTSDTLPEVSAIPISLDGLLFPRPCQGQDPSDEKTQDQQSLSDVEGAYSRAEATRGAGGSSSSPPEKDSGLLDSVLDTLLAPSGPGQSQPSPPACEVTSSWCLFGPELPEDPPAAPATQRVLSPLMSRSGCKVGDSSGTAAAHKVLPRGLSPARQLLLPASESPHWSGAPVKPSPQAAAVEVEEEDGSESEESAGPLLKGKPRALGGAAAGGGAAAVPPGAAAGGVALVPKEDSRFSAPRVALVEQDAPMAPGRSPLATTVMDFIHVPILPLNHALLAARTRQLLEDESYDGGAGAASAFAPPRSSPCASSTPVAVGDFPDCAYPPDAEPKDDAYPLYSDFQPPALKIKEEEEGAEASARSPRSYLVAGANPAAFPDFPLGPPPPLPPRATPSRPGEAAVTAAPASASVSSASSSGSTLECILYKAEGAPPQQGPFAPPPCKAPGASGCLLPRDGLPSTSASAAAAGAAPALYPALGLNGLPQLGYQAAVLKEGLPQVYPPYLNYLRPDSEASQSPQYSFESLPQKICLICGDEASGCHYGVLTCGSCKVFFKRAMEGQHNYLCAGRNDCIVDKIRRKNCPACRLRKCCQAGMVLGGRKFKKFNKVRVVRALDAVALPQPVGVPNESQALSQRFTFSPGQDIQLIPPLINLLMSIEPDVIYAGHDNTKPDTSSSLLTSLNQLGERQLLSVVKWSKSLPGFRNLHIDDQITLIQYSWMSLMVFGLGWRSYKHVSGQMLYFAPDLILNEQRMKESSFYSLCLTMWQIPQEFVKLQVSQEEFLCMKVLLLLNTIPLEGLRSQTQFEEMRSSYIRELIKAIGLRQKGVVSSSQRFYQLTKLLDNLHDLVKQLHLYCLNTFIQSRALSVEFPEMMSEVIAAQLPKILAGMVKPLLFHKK", "test": "qHTS assay to identify small molecule agonists of the progesterone receptor (PR) signaling pathway (AID 1346784; calls by dose curve; note: % is set by controls: 0 for no effect and ±100 for the full control effect; nearly all actives have a fitted effect of over 30% in size)", "conditions": "PR-UAS-bla HEK293T, beta-lactamase FRET ratio, 16 h; activation: at 92.4 µM (top of the series) unless noted", "how_it_was_run": "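Cells (PR-UAS-bla HEK 293T, GripTite) were plated in assay medium containing 2% charcoal-stripped FBS and incubated 6 hr. Test compounds in DMSO were added for 16 hr at 37C. FRET substrate was then loaded for 2 hr at room temperature before fluorescence reading.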"}, "[9]": {"conditions": "activity, negative = inhibition: at 92.4 µM (top of the series) unless noted"}}, "note": "The shares of active, inactive and inconclusive entries below differ from those in the screen. For some assays here: Where the call is inconclusive, the potency comes from a doubtful curve fit. Calls of active or inactive are those of the source. Unless noted, calls come from the whole dose curve; as a rule, active = well fitted curve in the direction sought with a large enough effect in the repeat runs; inconclusive = weak or mixed curves; inactive = no such curve, though single readings can be large; an effect the other way counts as inactive or inconclusive. Tags give direction and shape of the fitted curve or compound fluorescence and quenching.", "data": [{"compound": "CC1(C)NC(=O)N(c2ccc([N+](=O)[O-])c(C(F)(F)F)c2)C1=O", "values": [{"measurement": "activity, negative = inhibition", "setting": "[1]; at 42.5 µM (top of the series)", "result": "inactive: -18.8%"}, {"measurement": "Potency", "setting": "[2]", "result": "inconclusive: 68.6 µM [cytotoxic]"}, {"measurement": "Potency", "setting": "[3]", "result": "inconclusive: 43.3 µM [cytotoxic, partial curve, poor fit]"}]}, {"compound": "CCC/C=C/C=O", "values": [{"measurement": "activity, negative = inhibition", "setting": "[1]; at 92.4 µM (top of the series)", "result": "inactive: 7.31%"}]}, {"compound": "COCC(C)N", "note": "(stereo not drawn)", "values": [{"measurement": "activity, negative = inhibition", "setting": "[1]; at 92.4 µM (top of the series)", "result": "inactive: -4.04%"}]}, {"compound": "CCn1cc(C(=O)O)c(=O)c2ccc(C)nc21", "values": [{"measurement": "activity, negative = inhibition", "setting": "[1]; at 42.5 µM (top of the series)", "result": "inconclusive: 17%"}]}, {"compound": "COc1ccc(-c2cc(=S)ss2)cc1", "values": [{"measurement": "Potency", "setting": "[4]", "result": "inconclusive: 15 µM [activator, partial curve]"}]}, {"compound": "Fc1ccc(C(c2ccc(F)cc2)N2CCN(C/C=C/c3ccccc3)CC2)cc1", "values": [{"measurement": "Potency", "setting": "[4]", "result": "inactive"}]}, {"compound": "Cc1ccc(C(=O)Oc2ccc(C(O)CNC(C)(C)C)cc2OC(=O)c2ccc(C)cc2)cc1", "note": "(stereo not drawn)", "values": [{"measurement": "activity, negative = inhibition", "setting": "[1]; [9]", "result": "inconclusive: -40.2% [at 42.5 µM]"}, {"measurement": "Potency", "setting": "[2]", "result": "inconclusive: 33.5 µM [cytotoxic, partial curve, poor fit]"}, {"measurement": "Potency", "setting": "[5]", "result": "inconclusive: 26.6 µM [cytotoxic, partial curve]"}, {"measurement": "Potency", "setting": "[6]", "result": "active: 0.0362 µM"}]}, {"compound": "O=C(O)c1ccc(OCCCOc2ccc(C(=O)O)cc2)cc1", "values": [{"measurement": "Potency", "setting": "[1]; [9]", "result": "inactive"}, {"measurement": "Potency", "setting": "[7]", "result": "inactive"}]}, {"compound": "O=C1CCCc2c1cc1ccc3cccc4ccc2c1c34", "values": [{"measurement": "Potency", "setting": "[1]; [9]", "result": "inconclusive: 24.6 µM [activator, partial curve]"}, {"measurement": "Potency", "setting": "[2]", "result": "inconclusive: 27.6 µM [cytotoxic, partial curve, poor fit]"}, {"measurement": "Potency", "setting": "[7]", "result": "active: 31 µM"}, {"measurement": "activation", "setting": "[8]", "result": "inconclusive: 21.1%"}]}, {"compound": "Cc1cc(C(C#N)c2ccc(Cl)cc2)c(Cl)cc1NC(=O)c1cc(I)cc(I)c1O", "note": "(stereo not drawn)", "values": [{"measurement": "Potency", "setting": "[1]; [9]", "result": "inconclusive: 21.1 µM [inhibitor, partial curve]"}, {"measurement": "Potency", "setting": "[2]", "result": "inconclusive: 33.5 µM [cytotoxic, partial curve, poor fit]"}, {"measurement": "Potency", "setting": "[5]", "result": "active: 23.7 µM"}, {"measurement": "Potency", "setting": "[3]", "result": "inconclusive: 33.5 µM [cytotoxic, single point]"}, {"measurement": "activation", "setting": "[8]", "result": "inconclusive: -11.5% [at 42.5 µM]"}]}]}
